Measured values: the supplement of paper PMC11417369
± gives the standard deviation of the averaged measurements. This is one part of the list.

tested on: PfAP2-G AP2 domain (GST-tagged); experiment: gcPBM binding intensity (ln(normalized median fluorescence intensity)); higher = stronger DNA binding
In short: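 Binding intensity values are the highest Masliner-normalised natural-log median intensity among replicate spots of either probe orientation. The binding step lasted 1 h in 1× PBS with 1% milk, 0.2 mg/ml BSA, 0.5% salmon testes DNA and 0.03% Triton X-100, using GST-tagged P. falciparum DNA-binding domains expressed in E. coli on an Agilent 4 × 180k array of primer-extended double-stranded 36-bp intergenic genomic probes plus negative controls. Alexa488 anti-GST antibody and a 488 nm scan detected bound protein.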

| Sequence | gcPBM binding intensity (ln) |
| --- | --- |
| TATATATGTATGTATGTACACACAAAAAATGGAATA [CACACA_site9235] | 11.4 ± 0.85 |
| GGATACATATGTAAAAGTACACATGAATATATACAT [XGTACX_site6469] | 11.5 ± 1 |
| GTAAAATTAAAAATAACACACAAAAAAAAAAAAAAA [CACACA_site800] | 9.67 ± 0.37 |
| TTATTATTAGAAAAAAGTACACATATAAAATGTTAC [XGTACX_site6426] | 11.5 ± 1.1 |
| AAAAAAAAAAGAAAAAGTACATACATACATATATAT [XGTACX_site6405] | 11.3 ± 0.83 |
| ATTAATATTTAGACTTGTACATATATAATATATGTC [XGTACX_site3766] | 10.9 ± 0.64 |
| ATAAAATATCAATACCGTACACAAGCAGGTAAAATA [XGTACX_site3719] | 11 ± 0.67 |
| CTTTTTTGTAATAACACACACACAAACAGAAAAAAT [CACACA_site2075] | 10.5 ± 0.35 |
| AATATAAATATAAATTGTACTTAAAAATTTCACGCA [XGTACX_site5234] | 11.1 ± 0.86 |
| TTAAAAAACTATAATACACACCAAAAATATGCACAT [CACACA_site7079] | 10.4 ± 0.11 |
| TCCTTTTGAACCCTTTTTCTCACAAGACCTTTATAT [TGCATGCA_negctrl_site413] | 10.3 ± 0.12 |
| TTTCGTTGTGTATTTTGTACATATTTTTAATTATAT [XGTACX_site6687] | 10.9 ± 0.39 |
| AAAAAAATAATGTACACACACATATATGTTTATATA [CACACA_site6234] | 11.4 ± 0.92 |
| AATTAAAAAGTTTTTAATGTTTTTAATTTTTTCCAC [XGTACX_negctrl_site423] | 9.79 ± 0.25 |
| AAAGGTGTATTTAATACACACGTGTCATTAAAATTG [CACACA_site4508] | 10.3 ± 0.13 |
| TATATAAATTATGTGAGTACATAATTTAGAAGGAAC [XGTACX_site2807] | 11.4 ± 1.1 |
| AAGAAAAAGATGCGCATACACACAGATGAATAACAA [CACACA_site1627] | 10.2 ± 0.13 |
| TTTCTTTTTTAAATTAAAATTTTTTTTTTTTTCGGT [TGCATGCA_negctrl_site52] | 9.55 ± 0.028 |
| TTATTTCAAAGTTGTTGTACAAAAATATATTTATAA [XGTACX_site5226] | 11.3 ± 0.52 |
| TATAACAAAAAAAAATAAAAAATAAAACTATATATA [CACACA_negctrl_site504] | 9.555 ± 0.007 |
| GTTATTATATATATGTGTACTTAAAAATTTTATGTC [XGTACX_site6084] | 11.4 ± 0.95 |
| TTTTTTTTTTATTCTTCACACATTTCCAATAAAAAA [CACACA_site5601] | 10.2 ± 0.2 |

| Sequence | gcPBM binding intensity (ln) |
| --- | --- |
| ACCTAAAATAACTACACACACATAAAAAAAAAAAAA [CACACA_site2529] | 10.1 ± 0.47 |
| AAAGAAGGGAAACACACACACACACCCACAAAAAAA [CACACA_site3766] | 10.3 ± 0.33 |
| AAAAAAAAAAAAAAAACACACAGAAATATATATATA [CACACA_site4611] | 10.1 ± 0.26 |
| AATAAAAAAAAAATAAATTTAATAATAATAATAAAA [CACACA_negctrl_site569] | 9.29 ± 0.32 |
| TTTATATATTTTAGGAGTACATTAAATTATACCTTA [XGTACX_site5600] | 11.5 ± 0.89 |
| TGTATATATATTTATGCATGCTGTGTGTATTCTTTT [TGCATGCA_site74] | 9.98 ± 0.22 |
| TTTCTTTTTATATTCACACATAAATATATATATATA [CACACA_site6053] | 10.1 ± 0.23 |
| AAAAAAAAAAAACACACACACACATACCCATACATA [CACACA_site5575] | 10.2 ± 0.26 |
| TATATAAGGAAATATTGTACTTTTATATTTATATTA [XGTACX_site3814] | 11.1 ± 0.77 |
| ATATAAAAATATAATACACACATAAAATATATTATA [CACACA_site969] | 9.84 ± 0.042 |
| TGCTCTCTCTTGTTGTGTACATAATACAATATATAT [XGTACX_site7427] | 11.3 ± 0.87 |
| TGTATGCTTACATAATGTACGGAAAAATAAAGGCAT [XGTACX_site6923] | 11.2 ± 0.78 |
| ATATATAAATAATGTTGTACGTATTTCAAAAGTATG [XGTACX_site3363] | 11.5 ± 0.95 |
| ATAATAATAATAAAAAGTACAAATTATTATATATAT [XGTACX_site5160] | 11 ± 0.67 |
| TACATTTAAAAAAAAACACACATATATATATATATA [CACACA_site2535] | 9.96 ± 0.53 |
| ATATATTTGTATAATAGTACGTACAGGCAAAATATA [XGTACX_site7396] | 11.5 ± 0.86 |
| TAATAATTTTTTTTTTTTTTTTACGAAAATATGATT [GTGCAC_negctrl_site323] | 9.59 ± 0.2 |
| TAATTATTTTCGGTACGTACTAATGTATATATAATT [XGTACX_site3895] | 11.5 ± 0.85 |
| AACGTCTTTTTTTTTTTTTTTCTTTTTTTTTTTATT [CACACA_negctrl_site303] | 9.57 ± 0.11 |
| ATAATAAGAACTCAGTGTACTATCCTTTGAATTAAC [XGTACX_site8117] | 11.1 ± 0.69 |
| ATATTTATTCAATCCAGTACATATTATATATTGTAT [XGTACX_site184] | 10.6 ± 0.35 |
| ATAAAATTATATACGTGTACATATATATATTTATGT [XGTACX_site4653] | 11.4 ± 0.77 |
